Source: PubChem BioAssay AID504339 (National Center for Advancing Translational Sciences (NCATS), 2011)
About 17,000 (4.4%) of roughly 390,000 compounds were called active. The inconclusive results got no clear call from the source; some entries with a clear call stand among them for comparison. Calls come from the whole dose curve; as a rule, active = well fitted inhibition curve with a large enough effect; inconclusive = small, poorly fitted or top-dose-only effect; inactive = no such curve, though single readings can be large or run the other way. Where the call is inconclusive, the potency comes from a doubtful curve fit.

biological target: Lysine-specific demethylase 4A (Homo sapiens) (UniProt O75164); assay: qHTS Assay for Inhibitors of JMJD2A-Tudor Domain; details: AlphaScreen JMJD2A-Tudor / H3K4me3 peptide binding; series mostly up to 114 µM; note: nearly all actives have a fitted effect of over 50% in size
Potency is the fitted concentration of half-maximal effect; tags give direction and shape of the fitted curve.

Sequence of UniProt O75164 (O75164 whole entry, looked up, the tested form may be a part): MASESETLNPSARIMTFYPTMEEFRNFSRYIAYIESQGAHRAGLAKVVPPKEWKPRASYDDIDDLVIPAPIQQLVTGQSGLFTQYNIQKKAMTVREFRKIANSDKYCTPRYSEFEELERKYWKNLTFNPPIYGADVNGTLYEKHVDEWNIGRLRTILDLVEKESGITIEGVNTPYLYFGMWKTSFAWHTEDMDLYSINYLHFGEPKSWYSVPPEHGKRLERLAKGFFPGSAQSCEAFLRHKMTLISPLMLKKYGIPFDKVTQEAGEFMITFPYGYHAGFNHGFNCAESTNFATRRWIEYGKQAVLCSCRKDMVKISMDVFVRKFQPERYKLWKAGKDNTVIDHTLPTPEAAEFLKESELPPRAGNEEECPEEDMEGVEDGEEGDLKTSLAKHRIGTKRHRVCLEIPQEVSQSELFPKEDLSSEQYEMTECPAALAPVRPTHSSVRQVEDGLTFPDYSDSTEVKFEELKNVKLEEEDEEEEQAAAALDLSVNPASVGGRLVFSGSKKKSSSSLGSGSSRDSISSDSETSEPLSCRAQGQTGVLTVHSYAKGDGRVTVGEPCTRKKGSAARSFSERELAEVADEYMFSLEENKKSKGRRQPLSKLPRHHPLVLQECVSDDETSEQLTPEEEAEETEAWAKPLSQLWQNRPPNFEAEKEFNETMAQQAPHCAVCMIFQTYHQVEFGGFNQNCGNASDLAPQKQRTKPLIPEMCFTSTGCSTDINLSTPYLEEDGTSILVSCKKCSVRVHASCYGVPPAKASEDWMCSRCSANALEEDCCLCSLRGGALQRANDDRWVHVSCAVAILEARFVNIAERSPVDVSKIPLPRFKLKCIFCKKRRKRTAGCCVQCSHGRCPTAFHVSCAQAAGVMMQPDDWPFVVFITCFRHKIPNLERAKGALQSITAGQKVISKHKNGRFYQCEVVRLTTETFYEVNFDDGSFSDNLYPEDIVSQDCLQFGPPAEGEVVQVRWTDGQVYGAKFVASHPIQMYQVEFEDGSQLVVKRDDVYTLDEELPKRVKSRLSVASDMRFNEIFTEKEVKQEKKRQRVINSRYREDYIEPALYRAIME

**Q.** For COc1ccc(-c2nnc(SC(C(=O)c3c[nH]c4ccccc34)c3ccccc3)n2N)cc1OC (stereo unspecified), which Potency is on record?
**A.** inconclusive: 14.1 µM [inhibitor, full curve]

**Q.** With CCc1ccccc1NC(=S)NCC1CCN(c2ccc(OC)cc2)C1 (stereo unspecified) as the compound, how does the Potency read?
**A.** active: 35.5 µM

**Q.** With O=C1c2cccnc2C(=O)N1Cc1ccco1 as the compound, how does the Potency read?
**A.** inconclusive: 89.1 µM [inhibitor, partial curve]

**Q.** With CCn1c(=O)c([N+](=O)[O-])c(NCC(O)c2ccccc2)c2ccccc21 (stereo unspecified) as the compound, how does the Potency read?
**A.** inactive

**Q.** With CCc1ccc(S(=O)(=O)c2nnn3c2nc(Nc2cc(OC)ccc2OC)c2sccc23)cc1 as the compound, how does the Potency read?
**A.** inactive

**Q.** With O=S(=O)(NCCS(=O)(=O)N1CCN(c2ccccc2)CC1)c1ccc(Br)cc1 as the compound, how does the Potency read?
**A.** inactive

**Q.** How did the Potency turn out when COc1ccc(NC(=S)NCCc2c(C)[nH]c3ccc(OC)cc23)cc1 was run?
**A.** inconclusive: 44.7 µM [inhibitor, partial curve]

**Q.** With Cc1cc(C)cc(N2C(=O)CC(Sc3ncn[nH]3)C2=O)c1 (stereo unspecified) as the compound, how does the Potency read?
**A.** inconclusive: 25.1 µM [inhibitor, full curve]

**Q.** Cn1c(N)c(C(=O)CSc2nnc(N)s2)c(=O)n(C)c1=O was tested. Which Potency did it give?
**A.** inconclusive: 15.8 µM [inhibitor, partial curve]

**Q.** O=C(c1cnn(-c2ccc(F)cc2)c1-n1cccc1)N1CCN(c2ccc(F)cc2)CC1 was tested. Which Potency did it give?
**A.** inconclusive: 56.2 µM [inhibitor, partial curve]

**Q.** CCNc1nc(NCc2ccc(F)cc2)c2cnn(C)c2n1 was tested. Which Potency did it give?
**A.** active: 50.1 µM

**Q.** How did the Potency turn out when CCCCN1CC(O)=C(c2nc(-c3ccc(Cl)cc3)cs2)C1=N was run?
**A.** inconclusive: 12.6 µM [inhibitor, full curve, poor fit]

**Q.** With CCCNC(=O)C(Cc1ccc(I)cc1)NC(=O)c1ccc(C#N)cc1 (stereo unspecified) as the compound, how does the Potency read?
**A.** inconclusive: 89.1 µM [inhibitor, partial curve]

**Q.** CCC(C)(C)NC(=O)c1sccc1Oc1ccc(F)cc1[N+](=O)[O-] was tested. Which Potency did it give?
**A.** inconclusive: 44.7 µM [inhibitor, partial curve]

**Q.** How did the Potency turn out when CCOC(=O)C1=C(C)N=c2s/c(=C\c3ccc(OCC(=O)O)cc3)c(=O)n2C1c1ccccc1OC (stereo unspecified) was run?
**A.** active: 89.1 µM

**Q.** How did the Potency turn out when Cc1ccsc1CN1CCc2nc(Nc3ccccc3)ncc2C1 was run?
**A.** inconclusive: 56.2 µM [inhibitor, partial curve]

**Q.** N#C/C(=C/c1ccc(O)c(O)c1)c1nc2ccccc2[nH]1 was tested. Which Potency did it give?
**A.** active: 28.2 µM

**Q.** COc1cccc2cc(C(=O)C3=C(O)C(=O)N(CCN4CCOCC4)C3c3cccs3)oc12 (stereo unspecified) was tested. Which Potency did it give?
**A.** active: 79.4 µM

**Q.** O=C(N/N=C/c1ccccc1)c1ccc(NC(=O)c2ccc(F)cc2)cc1 was tested. Which Potency did it give?
**A.** inactive

**Q.** Which Potency does the source give for CCCCC(=O)Nc1ccc2c(c1)nc(CN1CCN(C(=O)OCC)CC1)n2C here?
**A.** inactive

**Q.** Cc1ccc(S(=O)(=O)Nc2cccc(-c3cn4cccc(C)c4n3)c2)c(C)c1 was tested. Which Potency did it give?
**A.** inconclusive: 31.6 µM [inhibitor, partial curve, poor fit]

**Q.** O=C(N/N=C\c1ccc2c(c1)OCO2)c1cncc(Br)c1 was tested. Which Potency did it give?
**A.** inconclusive: 100 µM [inhibitor, single point]

**Q.** With COc1ccc([N+](=O)[O-])cc1N(CC(=O)N1CCOCC1)S(C)(=O)=O as the compound, how does the Potency read?
**A.** inconclusive: 56.2 µM [inhibitor, partial curve]

**Q.** With CCOc1ccc(NC(=O)c2ccc3[nH]c(C)c(C)c3c2)cc1 as the compound, how does the Potency read?
**A.** inconclusive: 56.2 µM [inhibitor, partial curve]

**Q.** With Cc1ccc(C2=NOC(=O)/C2=C\c2ccccc2)cc1 as the compound, how does the Potency read?
**A.** inactive

**Q.** CCC(C)c1ccc(S(=O)(=O)N2CCN(C(C)CC(=O)O)CC2)cc1 (stereo unspecified) was tested. Which Potency did it give?
**A.** active: 3.55 µM

**Q.** For c1cc2c3c(cccc3c1)NC1(CCCC1)N2, which Potency is on record?
**A.** inconclusive: 44.7 µM [inhibitor, partial curve]

**Q.** For Brc1ccc2nc(-c3c[nH]c4ccccc34)cn2c1, which Potency is on record?
**A.** inconclusive: 56.2 µM [inhibitor, partial curve]

**Q.** How did the Potency turn out when COc1cc(OC)cc(C(=O)NC(=S)Nc2ccc3oc(=O)ccc3c2)c1 was run?
**A.** inconclusive: 89.1 µM [inhibitor, single point]

**Q.** With O=C(N/N=C\c1cc(Br)ccc1O)c1ccc(S(=O)(=O)N2CCCCC2)cc1 as the compound, how does the Potency read?
**A.** inconclusive: 56.2 µM [inhibitor, partial curve]

**Q.** For O=C(O)c1cc([N+](=O)[O-])c(Nc2cccc3ccccc23)c([N+](=O)[O-])c1, which Potency is on record?
**A.** inconclusive: 56.2 µM [inhibitor, partial curve]

**Q.** COc1cc2c(cc1OC)n(Cc1cccc(C(F)(F)F)c1)c(=O)n1nc(-c3ccccc3)nc21 was tested. Which Potency did it give?
**A.** inactive

**Q.** S=C(Nc1ccc(N2CCOCC2)cc1)Nc1ccc2snnc2c1 was tested. Which Potency did it give?
**A.** inconclusive: 63.1 µM [inhibitor, partial curve]

**Q.** Which Potency does the source give for Cc1cc(C)c2c(=O)n(CC(=O)NCCCN3CCN(c4ccccc4F)CC3)sc2n1 here?
**A.** active: 1 µM

**Q.** Cc1ccc(-n2c(C)n[nH]c2=S)cc1C was tested. Which Potency did it give?
**A.** active: 8.91 µM

**Q.** CCN(Cc1ccccc1)S(=O)(=O)c1ccc(C(=O)N(CCCN(C)C)c2nc3c(C)c(C)ccc3s2)cc1 was tested. Which Potency did it give?
**A.** inconclusive: 35.5 µM [inhibitor, partial curve]

**Q.** Which Potency does the source give for O=[N+]([O-])c1ccc(C(=Nc2cccc3ccccc23)N2CCOCC2)cc1 here?
**A.** inconclusive: 28.2 µM [inhibitor, full curve]

**Q.** For CCC(C)NCCOc1ccc(C)cc1[N+](=O)[O-] (stereo unspecified), which Potency is on record?
**A.** active: 0.794 µM

**Q.** N#C/C(=C\c1ccc(-c2ccc(C(=O)O)cc2)o1)C(=O)Nc1ccccc1C(=O)O was tested. Which Potency did it give?
**A.** active: 79.4 µM

**Q.** How did the Potency turn out when COc1cc(Nc2nc(SCC(=O)c3ccc(Br)cc3)nc3ccccc23)cc(OC)c1 was run?
**A.** inactive

**Q.** Which Potency does the source give for Cc1ccc(C(=O)N2CCN(c3ccc(F)cc3)CC2)cc1S(=O)(=O)N1CCCCC1 here?
**A.** inactive

**Q.** Which Potency does the source give for Cc1ccc(OCCn2cc(/C=C3\C(=O)NN(c4ccccc4)C3=O)c3ccccc32)cc1 here?
**A.** inconclusive: 1 µM [inhibitor, full curve, poor fit]

**Q.** How did the Potency turn out when CN(CCOc1ccc(F)cc1)Cc1ccccc1 was run?
**A.** active: 0.794 µM

**Q.** CCC1CCc2sc(C(=O)N(C)CC(=O)Nc3ccc(N4CCOCC4)cc3)cc2C1 (stereo unspecified) was tested. Which Potency did it give?
**A.** inactive

**Q.** Which Potency does the source give for Cc1ccc(C(=O)/C=C/c2ccccc2[N+](=O)[O-])cc1 here?
**A.** inconclusive: 35.5 µM [inhibitor, partial curve]

**Q.** With N#C/C(=C(/O)C(Cl)(Cl)Cl)c1nc2ccccc2[nH]1 as the compound, how does the Potency read?
**A.** active: 50.1 µM
